Measured values published in PubChem BioAssay AID540317 (National Center for Advancing Translational Sciences (NCATS), 2011).
Among all 390,000 compounds or so, about 2,200 (0.56%) were called active. Inconclusive results, whose numbers are uncertain, are shown with a selection of clear calls. Calls come from the whole dose curve; as a rule, active = well fitted inhibition curve with a large enough effect; inconclusive = small, poorly fitted or top-dose-only effect; inactive = no such curve, though single readings can be large or run the other way. A potency beside an inconclusive call is a rough fit, not a confirmed value.

target: Chromobox protein homolog 1 (Homo sapiens) (UniProt P83916); assay: HTS for Inhibitors of HP1-beta Chromodomain Interactions with Methylated Histone Tails; settings: AlphaScreen HP1-beta / biotin-H3K9me3 peptide binding; series mostly up to 114 µM; activity change, negative = inhibition: at the top concentration; note: nearly all actives have a fitted effect of over 70% in size
Method in brief: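 AlphaScreen: HP1-beta (50 nM) preformed 30 min with biotin-H3(1-18)K9me3 peptide (50 nM) in PBS pH 7.4, 0.01% Tween-20. Compound added for 30 min at RT, then streptavidin donor/nickel chelate acceptor beads (10 ug/mL) for 30 min.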
Potency is the fitted concentration of half-maximal effect; tags give direction and shape of the fitted curve.

Sequence of UniProt P83916 (P83916 whole entry, looked up): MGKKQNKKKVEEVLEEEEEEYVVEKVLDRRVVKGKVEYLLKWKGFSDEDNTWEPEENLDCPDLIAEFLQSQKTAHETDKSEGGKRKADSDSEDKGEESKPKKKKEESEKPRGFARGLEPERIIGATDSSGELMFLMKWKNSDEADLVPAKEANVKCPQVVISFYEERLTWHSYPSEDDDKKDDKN

| SMILES | Potency | activity change, negative = inhibition |
| --- | --- | --- |
| CN(CCOC(=O)/C=C/c1ccco1)Cc1ccccc1 | inconclusive: 25.1 µM [inhibitor, partial curve] | – |
| CCC(C)NC(=O)CN1C(=O)c2cccnc2Oc2ccc(C)cc21 (stereo unspecified) | – | inactive: 39.7% |
| COc1ccc(Nc2cc(C(=O)NCCCN(C)C3CCCCC3)c3ccccc3n2)c(OC)c1 | inconclusive: 22.4 µM [inhibitor, partial curve, poor fit] | – |
| COC(=O)c1ccc2c(=O)n(CCCCCC(=O)NCc3ccc(OC)cc3)c(=O)[nH]c2c1 | – | inactive: 17% |
| CCOc1ccc(S(=O)(=O)N/N=C(\C)c2ccc(OC)cc2OC)cc1 | inconclusive: 8.91 µM [inhibitor, partial curve, poor fit] | – |
| COC(=O)c1c(NC(=O)C2(C)Cc3ccccc3C(=O)O2)sc2c1CCCC2 (stereo unspecified) | inconclusive: 15.8 µM [inhibitor, full curve] | – |
| O=C(Cc1ccc2c(c1)CCCC2)Nc1ccc2ccccc2c1 | inconclusive: 39.8 µM [inhibitor, partial curve] | – |
| Cc1cc(C)cc(OCCSc2nc(-c3cccs3)nc3cc(=O)[nH]n23)c1 | inconclusive: 89.1 µM [inhibitor, single point] | – |
| C=CCN1C(=O)/C(=C2/Sc3ccccc3N2CCCS(=O)(=O)O)SC1=S | inconclusive: 25.1 µM [inhibitor, full curve] | – |
| CCN(CC)c1c([N+](=O)[O-])c(=O)n(C)c2ccccc12 | – | inactive: 3.98% |
| O=C1C=CC(=O)N1c1cccc(-c2ccccc2)c1 | active: 31.6 µM | – |
| Cc1ccc(C(=O)c2sc(Nc3ccc(F)cc3)nc2N)c(C)c1 | inconclusive: 56.2 µM [inhibitor, partial curve, poor fit] | – |
| O=C(Nc1cccnc1)c1ccc(N2CCOCC2)c([N+](=O)[O-])c1 | – | inactive: 33.8% |
| CCOC(=O)c1cnc(-n2nc(C)cc2C)nc1Nc1ccc(N(C)C)cc1 | inconclusive: 39.8 µM [inhibitor, partial curve] | – |
| CCOc1ccc(-n2cc(-c3ccc(OC)c(OC)c3)[nH]c2=S)cc1 | inconclusive: 14.1 µM [inhibitor, full curve, poor fit] | – |
| Cc1ccc(S(=O)(=O)N2CCCCC2)cc1NC(=O)CNCc1ccco1 | inconclusive: 25.1 µM [inhibitor, single point] | – |
| Cc1ccc(C)n1-c1ccc(N(C)C)cc1 | inconclusive: 56.2 µM [inhibitor, partial curve, poor fit] | – |
| COc1ccc(Nc2ccc(S(=O)(=O)N3CCCCC3)cc2[N+](=O)[O-])cc1OC | inconclusive: 8.91 µM [inhibitor, full curve, poor fit] | – |
| O=C1C=C(NCCc2cc(Br)c(O)c(Br)c2)C(=O)c2ncccc21 | active: 31.6 µM | – |
| C=CCc1ccc(OCCCCCN2CCOCC2)c(OC)c1 | inconclusive: 89.1 µM [inhibitor, single point] | – |
| Cn1cc(P(=S)(N2CCOCC2)N2CCOCC2)cc1P(=O)(N1CCOCC1)N1CCOCC1 | inconclusive: 7.08 µM [inhibitor, full curve] | – |
| COc1cc(/C=C2\CC(C(C)(C)C)C/C(=C\c3cc(OC)c(OC)c(OC)c3)C2=O)cc(OC)c1OC (stereo unspecified) | inconclusive: 25.1 µM [inhibitor, full curve] | – |
| COc1cccc(N2CCN(c3ncnc4c3[nH]c3ccc(F)cc34)CC2C)c1 (stereo unspecified) | inconclusive: 50.1 µM [inhibitor, partial curve] | – |
| CC(=S)/C=C1\Sc2ccccc2N1C | inconclusive: 56.2 µM [inhibitor, partial curve] | – |

| SMILES | Potency | activity change, negative = inhibition |
| --- | --- | --- |
| CC(=C\c1ccccc1)/C=C1/SC(=S)N(C(C(=O)O)C(C)C)C1=O (stereo unspecified) | inconclusive: 44.7 µM [inhibitor, partial curve, poor fit] | – |
| Cc1ccc(CCNC(=O)c2cc3cc(S(=O)(=O)N4CCCCC4)ccc3n2C)cc1 | – | inactive: 27.2% [at 57 µM] |
| Cc1ccnc(NC(c2cccnc2)c2ccc3cccnc3c2O)c1 (stereo unspecified) | inconclusive: 31.6 µM [inhibitor, partial curve] | – |
| Cc1cc(/C=C(/C#N)c2nc3ccccc3[nH]2)c(C)n1-c1cc(C(=O)O)cc(C(=O)O)c1 | inconclusive: 50.1 µM [inhibitor, partial curve] | – |
| Cc1[nH]c2ccccc2c1/C=N/Nc1ccccc1[N+](=O)[O-] | active: 39.8 µM | – |
| COc1ccc2ccccc2c1CNCc1ccc(C)cc1 | inconclusive: 39.8 µM [inhibitor, partial curve] | – |
| O=C(Nc1ccc(Cc2ccncc2)cc1)C1CC1 | – | inactive: 20% |
| Cc1cc(-c2csc(N)n2)c(C)n1Cc1ccccc1 | inconclusive: 50.1 µM [inhibitor, partial curve] | – |
| COc1ccc(/C=C/C=C2\N=C(SC)SC2=O)cc1 | inconclusive: 7.08 µM [inhibitor, full curve] | – |
| CC(C)Nc1oc(Cc2cccc3ccccc23)nc1C#N | inconclusive: 63.1 µM [inhibitor, single point] | – |
| O=C1/C(=C\c2ccc3c(c2)OCO3)CCC/C1=C/c1ccc2c(c1)OCO2 | – | inactive: -22.1% |
| CCCCN1C(=O)/C(=C2\SC(N3CCCCC3)=NC2=O)c2ccccc21 | active: 15.8 µM | – |
| N#Cc1c(/N=C/C=C/c2ccccc2)sc2c1CCCC2 | active: 17.8 µM | – |
| CCc1ccc(CN2CCCC(C(=O)N3CCCCC3)C2)cc1 (stereo unspecified) | – | inactive: -32.2% |
| COc1ccc(/C=C/C(=O)OCC(=O)NC2CCCC2)cc1 | – | inactive: 33.3% |
| COc1cccc(NC(=O)CN2C(=O)NC(c3ccccc3)(c3ccccc3)C2=O)c1 | inconclusive: 79.4 µM [inhibitor, partial curve, poor fit] | – |
| CCn1cnc2cc(NCc3ccccc3Cl)ccc21 | inconclusive: 70.8 µM [inhibitor, partial curve] | – |
| CCOc1ccc(NC(=S)NS(=O)(=O)c2cc(Br)ccc2OCC)cc1 | inconclusive: 31.6 µM [inhibitor, partial curve] | – |
| O=C(c1cnn2c(C(F)(F)F)cc(-c3ccco3)nc12)N1CCCCCC1 | – | inactive: 39% |
| c1coc(-c2nnc(-c3ccco3)nn2)c1 | active: 44.7 µM | – |
| CN(CCOc1ccc(Cl)cc1)C(=O)c1cc(-c2ccco2)nc2ccccc12 | – | inactive: -6.36% |
| COc1ccc(N2CCN(C(c3cc(OC)ccc3OC)c3nnnn3Cc3ccco3)CC2)cc1 (stereo unspecified) | active: 15.8 µM | – |
| CCCCN(C)CC(O)Cn1cc(/C=C/C(=O)c2ccc(OCC)cc2)c2ccccc21 (stereo unspecified) | inconclusive: 22.4 µM [inhibitor, full curve] | – |
| Cc1cccc(-n2ccnc2SCC(=O)Nc2cc(C(F)(F)F)ccc2Cl)c1 | inconclusive: 8.91 µM [inhibitor, partial curve, poor fit] | – |

| SMILES | Potency | activity change, negative = inhibition |
| --- | --- | --- |
| Cc1cc(C)c2c(-n3cccc3)nn(C)c2n1 | – | inactive: 17.9% |
| CC(C)c1ccc(Nc2c(-c3ccsc3)nc3ccc(Cl)cn23)cc1 | – | inactive: 28.5% |
| COCCCNc1nc2ccccc2nc1NS(=O)(=O)c1ccccc1 | – | inactive: 52.7% |
| Oc1ccc(Cl)cc1CNc1cccc2cccnc12 | – | inactive: 14.4% |
| CC1=NN(c2ccc(C(=O)OC(C)C)cc2)C(=O)/C1=C\C=C\c1ccco1 | inconclusive: 1.78 µM [inhibitor, full curve, poor fit] | – |
| Cn1nnnc1Sc1ncnc2scc(-c3ccccc3C(F)(F)F)c12 | inconclusive: 50.1 µM [inhibitor, partial curve, poor fit] | – |
| CCN(c1ccc(NC(=O)COC(=O)c2ccc3ccccc3n2)cc1)C(C)C | active: 22.4 µM | – |
| COC(=O)c1c(-c2ccccc2)csc1NC(=O)C1CC=CCC1C(=O)O (stereo unspecified) | inconclusive: 25.1 µM [inhibitor, full curve, poor fit] | – |
| COC(=O)c1c(NC(=O)COC(=O)c2ccc(Cl)cc2[N+](=O)[O-])sc2c1CCCCC2 | – | inactive: 21.2% |
| Nc1nnc(CSCc2ccc(F)cc2)s1 | inconclusive: 39.8 µM [inhibitor, partial curve, poor fit] | – |
| C=CCN1C(=O)/C(=c2\sc3nc(=O)c(Cc4ccccc4)nn3c2=O)c2ccccc21 | inconclusive: 39.8 µM [inhibitor, partial curve] | – |
| O=[N+]([O-])c1ccc(CN2CCCCCC2)s1 | active: 3.16 µM | – |
| CCOc1ccccc1NC(=O)C(=O)NCC(c1cccnc1)N1CCN(c2ccccc2)CC1 (stereo unspecified) | – | inactive: 22.9% |
| CCOc1ccc(OCCn2ccnc2)cc1 | inconclusive: 56.2 µM [inhibitor, partial curve, poor fit] | – |
| CCOc1cc(Cl)c(S(=O)(=O)n2cc(C)nc2CC)cc1Cl | – | inactive: 14.7% |
| CC(C)(C)c1cc(CN2CCC(O)CC2)cc(C(C)(C)C)c1O | inconclusive: 79.4 µM [inhibitor, single point] | – |
| Cc1[nH]c2ccccc2c1/C=N/NC(=S)NC(C)C | inconclusive: 35.5 µM [inhibitor, partial curve] | – |
| COc1cc(NC(=S)NC(=O)c2ccccc2F)ccc1NC(=O)c1ccco1 | inconclusive: 3.98 µM [inhibitor, full curve, poor fit] | – |
| COc1ccc(C(=O)NCCc2nc3ccccc3[nH]2)cc1 | – | inactive: 45.2% |
| CC(NCc1cccs1)C(=O)Nc1cc(Cl)cc(Cl)c1 (stereo unspecified) | inconclusive: 50.1 µM [inhibitor, partial curve] | – |
| CCc1cccc(OCCCCNCCOC)c1 | inconclusive: 50.1 µM [inhibitor, partial curve, poor fit] | – |
| Clc1ccc(/C=N/NC(=Nc2ccccc2)c2ccccn2)c(Cl)c1 | inconclusive: 50.1 µM [inhibitor, partial curve] | – |
| CC1CCC(N2CCN(c3ccc([N+](=O)[O-])cc3)CC2)CC1 (stereo unspecified) | inconclusive: 89.1 µM [inhibitor, single point] | – |
